# Out of some 310,000 compounds screened, about 14,000 (4.5%) showed an effect of 50% or more. Effects have a minus sign here. The list shows a part of the results.
# Target: human ether-à-go-go-related gene (hERG) potassium channel (human, UniProt Q12809)
# Experiment: primary screen, population patch clamp on CHO cells stably expressing hERG
# 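Further: peak tail current of the secondary pulse compared with the same well before compound.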
# Sequence of human ether-à-go-go-related gene (hERG) potassium channel (Q12809 whole entry, looked up): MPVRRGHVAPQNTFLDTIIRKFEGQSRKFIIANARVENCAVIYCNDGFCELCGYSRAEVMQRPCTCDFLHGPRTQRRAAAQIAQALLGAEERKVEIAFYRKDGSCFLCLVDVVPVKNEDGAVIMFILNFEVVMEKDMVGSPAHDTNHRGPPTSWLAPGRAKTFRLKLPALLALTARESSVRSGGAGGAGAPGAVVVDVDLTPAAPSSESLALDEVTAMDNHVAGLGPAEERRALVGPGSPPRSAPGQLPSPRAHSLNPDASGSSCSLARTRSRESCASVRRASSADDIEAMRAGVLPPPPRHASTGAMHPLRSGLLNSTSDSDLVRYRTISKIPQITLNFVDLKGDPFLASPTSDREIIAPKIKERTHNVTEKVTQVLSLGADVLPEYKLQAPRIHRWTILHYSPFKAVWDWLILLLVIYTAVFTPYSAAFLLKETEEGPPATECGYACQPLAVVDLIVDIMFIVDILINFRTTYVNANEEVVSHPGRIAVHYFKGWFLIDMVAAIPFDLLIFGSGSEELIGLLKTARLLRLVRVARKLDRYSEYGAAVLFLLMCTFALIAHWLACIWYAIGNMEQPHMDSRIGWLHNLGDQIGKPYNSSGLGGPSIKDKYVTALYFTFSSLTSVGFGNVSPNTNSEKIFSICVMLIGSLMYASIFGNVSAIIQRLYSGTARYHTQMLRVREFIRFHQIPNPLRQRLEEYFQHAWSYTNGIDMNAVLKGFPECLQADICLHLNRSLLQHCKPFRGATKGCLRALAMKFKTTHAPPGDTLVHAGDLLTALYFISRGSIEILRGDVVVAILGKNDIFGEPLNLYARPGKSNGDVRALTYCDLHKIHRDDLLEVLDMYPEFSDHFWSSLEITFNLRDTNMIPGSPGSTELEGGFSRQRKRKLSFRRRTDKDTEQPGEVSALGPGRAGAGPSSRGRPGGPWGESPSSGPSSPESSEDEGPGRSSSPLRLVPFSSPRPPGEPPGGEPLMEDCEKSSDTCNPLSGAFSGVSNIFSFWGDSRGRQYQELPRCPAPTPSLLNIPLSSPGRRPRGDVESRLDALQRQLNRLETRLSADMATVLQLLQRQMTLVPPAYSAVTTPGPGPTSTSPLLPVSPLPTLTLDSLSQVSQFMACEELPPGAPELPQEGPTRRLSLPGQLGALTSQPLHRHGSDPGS
row,Structure (SMILES),"hERG current change (%, negative = inhibition) at 10uM [%]"
1,COc1cc(Cl)c(S(=O)(=O)n2cnc(C)c2)cc1Cl,2.25
2,Cc1csc(NC(=O)c2ccc3ccccc3n2)n1,2.75
3,CCOC(=O)/C(C#N)=C/c1cn(CCOc2ccccc2)c2ccccc12,8.07
4,CN1CCN(C(=O)c2cc3sc4ccccc4c3s2)CC1,-15.5
5,O=C(COC(=O)CCCOc1ccc(Cl)cc1Cl)NCc1ccc(F)cc1,8.59
6,O=C(Nc1sc2c(c1C(=O)O)CCCCC2)c1cccs1,56.2
7,COC(=O)Cc1ccc(NC(=O)c2ccccc2Br)cc1,0.8
8,O=C(CN1C(=O)CC(c2ccco2)Sc2ccccc21)Nc1ccccc1F (stereo not drawn),-39.3
9,O=C(c1ccc2c(c1)OCO2)C1CCCN(Cc2ccccn2)C1 (stereo not drawn),-30.9
10,O=S(=O)(c1ccc(F)cc1)N1CCC2(CC1)OCCO2,12.5
11,COc1cccc(NC(=O)CCC(=O)NCc2ccco2)c1,17.2
12,O=C(CCSCc1ccccc1F)NCc1cccnc1,-1.23
13,COc1ccc(S(=O)(=O)CCC(=O)N2CCN(c3ccc(C(C)=O)cc3)CC2)cc1,-45.9
14,COc1cccc(NC(=O)CSc2nc3c(c(-c4ccco4)c2C#N)CCCC3)c1,0.523
15,Cc1cc(S(=O)(=O)N2CCC3(CC2)OCCO3)c(C)cc1Cl,-9.71
16,Cc1cc(NC(c2cccnc2)c2ccc3cccnc3c2O)no1 (stereo not drawn),-12.4
17,CN(C)CCN(C(=O)c1ccc(N2C(=O)CCC2=O)cc1)c1nc2cc3c(cc2s1)OCCO3.Cl,-2.22
18,Nc1c(C(=O)NCc2ccco2)sc2nc(N3CCOCC3)c3c(c12)CCCC3,-4.59
19,CC(=O)c1cccc(NC(=O)c2cc(-c3ccc(F)cc3)on2)c1,6.26

row,Structure (SMILES),"hERG current change (%, negative = inhibition) at 10uM [%]"
1,O=C(O)c1cccc(Oc2ccccc2[N+](=O)[O-])c1,19.4
2,CCOc1ccc(C(=O)NCC(=O)NCC(c2ccccc2OC)N2CCCC2)cc1 (stereo not drawn),-13.3
3,Brc1cccc(-c2nnc(-c3ccccc3)o2)c1,5
4,Cc1ccccc1-c1nc(Cc2ccccc2)no1,11.8
5,O=C(C1CC1)N1CCc2cc(S(=O)(=O)NCCC3=CCCCC3)ccc21,-12.4
6,COc1ccc(C(C)=O)cc1CN(C)C.Cl,17.1
7,Cc1ccc(-c2cc(C(=O)N3CCN(c4ccc(F)cc4)CC3)c3ccccc3n2)o1,-35.7
8,CCN(CC)S(=O)(=O)c1ccc(-c2cn3cc(Cl)ccc3n2)cc1,2.07
9,CSc1ccc(CN(C)C(=O)C(Cc2ccccc2)NC(=O)c2ccccc2)cc1 (stereo not drawn),2.45
10,O=C(COC(=O)CCc1nc2ccccc2s1)Nc1nc(-c2ccccc2)cs1,-0.417
11,Cc1nc(-n2nnc3cc(C)c(C)cc32)c2c3c(sc2n1)CCCC3,-1.48
12,CC(=O)N(C)c1ccc(C(O)(C(F)(F)F)C(F)(F)F)cc1,14.1
13,COc1ccc(CNC(=O)C2CCN(c3cc(C(=O)Nc4cccc(OC)c4)ccn3)CC2)cc1,-46
14,Brc1cc2c(cc1Br)OCCOCCOCCOCCO2,-76.5
15,Oc1ccccc1C=NC1CCCCC1N=Cc1ccccc1O (stereo not drawn),16.8
16,O=Cc1cccn1Cc1ccc(Cl)cc1Cl,-27.8
17,COC(=O)N/N=C(\C)c1ccc(-n2ccnc2)cc1,7.15
18,CCOc1ccccc1N(CC(=O)NCc1ccc(OC)cc1)S(C)(=O)=O,-4.53
19,COc1cccc(CN(C(=O)c2ccco2)C(C(=O)NC2CCCC2)c2cccnc2)c1 (stereo not drawn),7.07

row,Structure (SMILES),"hERG current change (%, negative = inhibition) at 10uM [%]"
1,CC(C)CCN(CCC(C)C)C(=O)Cc1c(O)c2ccccc2[nH]c1=O,10.7
2,COc1ccccc1N1CCN(C(=O)c2ccc(CN3CCc4ccccc4C3)cc2)CC1,-13.4
3,CCC(=O)Nc1ccc(Cl)c(NC(=O)c2ccc([N+](=O)[O-])cc2)c1,-5.07
4,O=[N+]([O-])c1cc(Cl)ccc1NCCNc1ncc(C(F)(F)F)cc1Cl,8.15
5,O=C(COC(=O)C1CSC2(c3ccc(F)cc3)CCC(=O)N12)NC(=O)NC1CCCC1 (stereo not drawn),-4.24
6,CC(=O)N1CCN(c2ccc(NC(=O)c3ccco3)cc2Cl)CC1,0.303
7,CC(CNC(=O)CN1C(=O)c2cccnc2Oc2ccc(Cl)cc21)c1ccccc1 (stereo not drawn),2.01
8,O=C(O)C1CCCN(S(=O)(=O)Cc2ccccc2)C1 (stereo not drawn),-14.5
9,Cc1ccc(S(=O)(=O)NCCC(=O)Oc2ccc3ccc(=O)oc3c2)cc1,-0.545
10,C=CCNC(=O)CSc1nnc(-c2ccncc2)n1CCc1ccccc1,-4.4
11,COc1c(Cl)cc(Cl)cc1C(=O)Nc1ccccc1N1CCN(C(C)=O)CC1,3.01
12,O=C(CSc1ncn[nH]1)Nc1nc(-c2ccccc2)cs1,4.9
13,Cc1[nH]c2ccc(F)cc2c1CCN(Cc1ccncc1)C(=S)Nc1cccc(F)c1,-14
14,CCc1cccc(NC(=O)Cn2cccc2)c1,-3.79
15,CCOC(=O)c1ccc(NC(=O)Nc2ccc3c4c(cccc24)C(=O)N3CC)cc1,12.8
16,CN(C)CC/C=C1/c2ccccc2Sc2ccc(Cl)cc21.Cl,-56.8
17,CCOC(=O)C1CCCN(c2c(C(=O)c3ccccc3)cnc3ccccc23)C1 (stereo not drawn),-26.5
18,OCc1nc2ccccc2n1CCCOc1ccccc1,-21
19,CCOC(=O)N1CCC(NC(=O)CSCc2nc(-c3ccc(OC)c(OC)c3)oc2C)CC1,-2.5

# Reference: paper PMC4336329 (PLoS ONE, 2015)
